Changes are numbered by the printed parent chain. In names and notes the source's numbering stands.
Legend:
[1] = target: T1, N-terminally truncated FAN1 R507H (trFAN1 R507H), residues 364-1017 (human, UniProt Q9Y2M0 364-1017, R507H); assay: SPR; biotinylated 113 bp homoduplex DNA on neutravidin; PCNA titrated 10 µM to 156 nM in the presence of 100 nM FAN1 (A-B-A mode); steady-state affinity and 1:1 kinetic fit; 25 °C; 25 mM HEPES pH 7.5, 125 mM KCl, 10 mM CaCl2; details: both partners purified
T1 construct: human FAN1, residues 364-1017, with the disease-associated variant R507H; The crystallised construct of PDB 8S5A has the same limits but also K794A and Δ510-518; source: Sf21 insect cells, baculovirus (purification text says Sf9), purified (HisTrap, Heparin Sepharose, S200 SEC); not shown: His, N-terminal, cleaved; FLAG, N-terminal, cleaved; MBP, N-terminal, cleaved
T1 sequence (looked up): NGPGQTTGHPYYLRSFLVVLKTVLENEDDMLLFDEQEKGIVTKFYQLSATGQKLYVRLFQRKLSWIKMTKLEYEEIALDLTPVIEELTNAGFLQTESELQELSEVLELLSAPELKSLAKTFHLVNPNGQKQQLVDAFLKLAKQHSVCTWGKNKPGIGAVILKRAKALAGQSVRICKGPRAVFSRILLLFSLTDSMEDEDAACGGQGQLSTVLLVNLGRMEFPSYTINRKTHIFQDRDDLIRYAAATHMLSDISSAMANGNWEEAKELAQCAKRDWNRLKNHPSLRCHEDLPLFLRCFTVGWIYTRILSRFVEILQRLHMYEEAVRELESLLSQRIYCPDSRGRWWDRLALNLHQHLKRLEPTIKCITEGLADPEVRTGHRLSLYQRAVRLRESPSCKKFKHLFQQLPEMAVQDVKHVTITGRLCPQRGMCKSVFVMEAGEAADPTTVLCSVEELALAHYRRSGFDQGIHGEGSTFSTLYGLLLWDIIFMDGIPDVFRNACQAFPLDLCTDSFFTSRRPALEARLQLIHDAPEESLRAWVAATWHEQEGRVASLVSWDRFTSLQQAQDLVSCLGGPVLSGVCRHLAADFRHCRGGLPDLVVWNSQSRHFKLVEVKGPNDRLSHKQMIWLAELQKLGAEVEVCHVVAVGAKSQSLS

[2] = target: T2, FAN1 (FANCD2-FANCI-associated nuclease 1), full-length, wild type (human, UniProt Q9Y2M0 1-1017); assay: as above; details: both partners purified
T2 construct: human FAN1, full length, wild type; codon-optimised synthetic gene; Tag removed with PreScission protease; also called FAN1 WT; full-length FAN1; source: Sf21 insect cells, baculovirus (purification text says Sf9), purified (HisTrap, Heparin Sepharose, S200 SEC); not shown: His, N-terminal, cleaved; FLAG, N-terminal, cleaved; MBP, N-terminal, cleaved
T2 sequence (looked up): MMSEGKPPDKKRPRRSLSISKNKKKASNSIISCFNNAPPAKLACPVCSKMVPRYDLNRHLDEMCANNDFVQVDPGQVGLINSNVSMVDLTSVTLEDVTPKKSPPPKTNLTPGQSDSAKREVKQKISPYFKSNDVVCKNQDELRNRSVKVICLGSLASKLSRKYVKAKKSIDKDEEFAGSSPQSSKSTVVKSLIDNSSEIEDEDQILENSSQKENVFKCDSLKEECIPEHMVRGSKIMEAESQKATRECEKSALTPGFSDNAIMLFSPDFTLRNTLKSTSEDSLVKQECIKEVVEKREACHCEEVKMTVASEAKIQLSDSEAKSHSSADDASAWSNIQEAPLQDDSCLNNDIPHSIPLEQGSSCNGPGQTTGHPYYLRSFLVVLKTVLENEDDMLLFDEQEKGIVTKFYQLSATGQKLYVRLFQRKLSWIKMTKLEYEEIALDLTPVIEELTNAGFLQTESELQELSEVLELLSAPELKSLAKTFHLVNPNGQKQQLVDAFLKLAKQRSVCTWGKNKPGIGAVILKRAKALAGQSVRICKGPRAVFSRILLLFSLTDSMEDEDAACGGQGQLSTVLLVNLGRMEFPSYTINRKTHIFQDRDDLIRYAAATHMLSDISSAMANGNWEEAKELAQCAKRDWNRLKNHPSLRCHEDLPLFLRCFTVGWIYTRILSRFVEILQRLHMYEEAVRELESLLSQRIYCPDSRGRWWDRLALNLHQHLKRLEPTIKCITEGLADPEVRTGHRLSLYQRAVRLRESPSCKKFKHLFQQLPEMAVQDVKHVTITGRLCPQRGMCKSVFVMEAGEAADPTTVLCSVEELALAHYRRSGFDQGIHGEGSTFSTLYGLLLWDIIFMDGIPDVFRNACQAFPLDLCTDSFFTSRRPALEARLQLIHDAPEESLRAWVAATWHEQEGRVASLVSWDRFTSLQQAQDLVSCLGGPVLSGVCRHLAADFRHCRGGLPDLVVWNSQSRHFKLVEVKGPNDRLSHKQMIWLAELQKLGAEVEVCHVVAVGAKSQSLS

[3] = target: T3, N-terminally truncated FAN1 (trFAN1), wild type, residues 364-1017 (human, UniProt Q9Y2M0 364-1017); assay: cell-based or functional assay
T3 sequence (looked up): T1 sequence (looked up) with H144R

[4] = target: T1, N-terminally truncated FAN1 R507H …; assay: cell-based or functional assay
[5] = target: T4, FAN1 R507H, full-length (human, UniProt Q9Y2M0 1-1017, R507H); assay: cell-based or functional assay
T4 sequence (looked up): T2 sequence (looked up) with R507H

[6] = target: T1, N-terminally truncated FAN1 R507H …; assay: MST; 10 nM Cy5-labeled 61 bp homoduplex DNA, PCNA titrated in the presence of 100 nM FAN1, in solution; 25 °C; 25 mM HEPES pH 7.5, 125 mM KCl, 10 mM CaCl2; details: both partners purified
[7] = target: T2, FAN1 (FANCD2-FANCI-associated nuclease …); assay: as above; details: both partners purified
[8] = target: T4, FAN1 R507H, full-length; assay: as above; details: both partners purified

KD with DNA (PCNA for FAN1-bound DNA) [1]: 14 µM | KD with DNA (PCNA for FAN1-bound DNA) [2]: 3.7 µM | kcat of trFAN1 WT on 5′pG1/3′T1 dsDNA in presence of PCNA D232A (activity remains unchanged) [3]: 5.5 s⁻¹ | kcat of trFAN1 R507H on 5′pG1/3′T1 dsDNA in presence of PCNA D232A (activity remains unchanged) [4]: 9.5 s⁻¹ | kcat of FAN1 R507H on 5′pG1/3′T1 dsDNA in presence of PCNA D232A (only partially restored) [5]: 2 s⁻¹ | KD with DNA (PCNA for DNA in the presence of FAN1) [6]: 15.8 µM | KD with DNA (PCNA for DNA in the presence of FAN1) [7]: 1.3 µM | KD with DNA (PCNA for DNA in the presence of FAN1) [8]: 5.1 µM
B1: PCNA D232A, full-length (natural protein)
chain: not shown
notes: human PCNA, full length, with D232A; Trimer as said of PCNA in general; not measured for the mutant; source: E. coli BL21(DE3), purified (HisTrap, reverse HisTrap, S200 SEC); not shown: His (or His-AVI), N-terminal, cleaved
